Sequences and labels used below:
B1: glmS ribozyme (parent)
chain: AUAAAAGCGCCAGAACUACAGAAAUGUAGUUGACGAGGAGGAGGUUUAUCGAAUUUUCGGCGGAUGCCUCCAAA

Holding throughout (settings): with glucosamine-6-phosphate
Variants of B1 are the subject of data set [1]. Briefly: self-cleavage kobs at 40 uM GlcN6P; higher = faster cleavage; RNA array. A digest of the protocol:
(§1)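 Barcoded glmS ribozyme variants on sequenced MiSeq chips were transcribed in situ by E. coli RNA polymerase and tracked through a hybridised Cy3 probe at 37 °C. Glucosamine-6-phosphate (40 μM to 10 mM) in HEPES/KCl/Mg(OAc)2 buffer was flowed in, and tiles were imaged over ~14 h. Signals were normalised to baseline and to non-cleaving reference variants; per-tile medians were fit to one- or two-exponential decays to give kobs. kcat and KM came from weighted Michaelis–Menten fits across concentrations.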

Data set [2] covers variants of B1. In words: self-cleavage kobs at 2500 uM GlcN6P; higher = faster cleavage; RNA array. A digest of the protocol:
as §1

Data set [3] covers variants of B1. Briefly: self-cleavage kobs at 10000 uM GlcN6P; higher = faster cleavage; RNA array. The method in brief:
as §1

Variants of B1 are the subject of data set [4]. In words: self-cleavage kobs at 160 uM GlcN6P; higher = faster cleavage; RNA array. A digest of the protocol:
as §1

Variants of B1 are the subject of data set [5]. In words: self-cleavage kobs at 640 uM GlcN6P; higher = faster cleavage; RNA array. A digest of the protocol:
as §1

± gives the standard error. Variants at the floor of the assay are shown more often than the library holds them. Some results are limits rather than exact numbers.

Turning to A15U U49G A52C, the “self-cleavage kobs at 40 uM GlcN6P” value in the data set with glucosamine-6-phosphate [1] is below 1e-05 s⁻¹.
On the same count and under the same terms, the value for A12G G32C G37U C71G was below 1e-05 s⁻¹.
On to C11U G35U, for which the “self-cleavage kobs at 40 uM GlcN6P” value in the data set with glucosamine-6-phosphate [1] is below 1e-05 s⁻¹. The “self-cleavage kobs at 2500 uM GlcN6P” value with glucosamine-6-phosphate [2] is below 1e-05 s⁻¹. The “self-cleavage kobs at 10000 uM GlcN6P” value with glucosamine-6-phosphate [3] is below 1e-05 s⁻¹.
Take A14U G35U U69G: the “self-cleavage kobs at 40 uM GlcN6P” value with glucosamine-6-phosphate [1] was found to be 0.000295 ± 0.00012 s⁻¹. The “self-cleavage kobs at 10000 uM GlcN6P” value in the data set with glucosamine-6-phosphate [3] was 6.56e-05 ± 1.9e-05 s⁻¹.
For A14U A15G G43A, the “self-cleavage kobs at 40 uM GlcN6P” value with glucosamine-6-phosphate [1] was below 1e-05 s⁻¹. In addition, the “self-cleavage kobs at 160 uM GlcN6P” value in the data set with glucosamine-6-phosphate [4] is below 1e-05 s⁻¹.
In the case of A15C C16G G41A, the “self-cleavage kobs at 40 uM GlcN6P” value with glucosamine-6-phosphate [1] is below 1e-05 s⁻¹.
On to A14G G41C, for which the “self-cleavage kobs at 40 uM GlcN6P” value with glucosamine-6-phosphate [1] worked out at 4.74e-05 ± 9.7e-06 s⁻¹. The “self-cleavage kobs at 640 uM GlcN6P” value with glucosamine-6-phosphate [5] worked out at 0.00022 ± 5.1e-05 s⁻¹. Moreover, in the data set with glucosamine-6-phosphate [4], the “self-cleavage kobs at 160 uM GlcN6P” value was 4.38e-05 ± 1.7e-05 s⁻¹. Besides, the “self-cleavage kobs at 2500 uM GlcN6P” value in the data set with glucosamine-6-phosphate [2] is 0.000737 ± 0.00013 s⁻¹.
On to A14C G40A G51C C58A, for which the “self-cleavage kobs at 40 uM GlcN6P” value with glucosamine-6-phosphate [1] is below 1e-05 s⁻¹.
C11U G66U: in the data set with glucosamine-6-phosphate [1], the “self-cleavage kobs at 40 uM GlcN6P” value is below 1e-05 s⁻¹. For the same variant, in the data set with glucosamine-6-phosphate [2], the “self-cleavage kobs at 2500 uM GlcN6P” value amounted to 6.45e-05 ± 1e-05 s⁻¹.
Turning to A15U U31A G32A A36U U57A C58G C71U, the “self-cleavage kobs at 40 uM GlcN6P” value with glucosamine-6-phosphate [1] amounted to 5.17e-05 ± 2.1e-05 s⁻¹. For the same variant, the “self-cleavage kobs at 10000 uM GlcN6P” value in the data set with glucosamine-6-phosphate [3] was determined as 0.000109 ± 2.6e-05 s⁻¹.
As to G29A G60U A64C C67G, the “self-cleavage kobs at 40 uM GlcN6P” value in the data set with glucosamine-6-phosphate [1] was below 1e-05 s⁻¹.
The same measure, in the same setting: the value for A15U A36U G60A was below 1e-05 s⁻¹.
Take C11U A39C A48U: in the data set with glucosamine-6-phosphate [1], the “self-cleavage kobs at 40 uM GlcN6P” value is below 1e-05 s⁻¹. In addition, the “self-cleavage kobs at 640 uM GlcN6P” value with glucosamine-6-phosphate [5] was below 1e-05 s⁻¹. The “self-cleavage kobs at 160 uM GlcN6P” value with glucosamine-6-phosphate [4] is below 1e-05 s⁻¹.
On to C16G G59C, for which, in the data set with glucosamine-6-phosphate [1], the “self-cleavage kobs at 40 uM GlcN6P” value was below 1e-05 s⁻¹. Further, the “self-cleavage kobs at 640 uM GlcN6P” value with glucosamine-6-phosphate [5] was below 1e-05 s⁻¹. In addition, the “self-cleavage kobs at 160 uM GlcN6P” value with glucosamine-6-phosphate [4] was below 1e-05 s⁻¹. The “self-cleavage kobs at 2500 uM GlcN6P” value in the data set with glucosamine-6-phosphate [2] was below 1e-05 s⁻¹. Moreover, the “self-cleavage kobs at 10000 uM GlcN6P” value with glucosamine-6-phosphate [3] is below 1e-05 s⁻¹.
As for G29A C34A U46C, the “self-cleavage kobs at 40 uM GlcN6P” value with glucosamine-6-phosphate [1] is below 1e-05 s⁻¹. Also, the “self-cleavage kobs at 10000 uM GlcN6P” value with glucosamine-6-phosphate [3] is below 1e-05 s⁻¹.
With A12C A33C G35A G40U U65G, in the data set with glucosamine-6-phosphate [1], the “self-cleavage kobs at 40 uM GlcN6P” value was below 1e-05 s⁻¹. For the same variant, the “self-cleavage kobs at 640 uM GlcN6P” value with glucosamine-6-phosphate [5] is below 1e-05 s⁻¹. In addition, in the data set with glucosamine-6-phosphate [2], the “self-cleavage kobs at 2500 uM GlcN6P” value was below 1e-05 s⁻¹.
Take A15U U55G C61U: the “self-cleavage kobs at 40 uM GlcN6P” value with glucosamine-6-phosphate [1] was below 1e-05 s⁻¹. For the same variant, in the data set with glucosamine-6-phosphate [3], the “self-cleavage kobs at 10000 uM GlcN6P” value was below 1e-05 s⁻¹.
Consider C16A C58U, for which, in the data set with glucosamine-6-phosphate [1], the “self-cleavage kobs at 40 uM GlcN6P” value was below 1e-05 s⁻¹. The “self-cleavage kobs at 160 uM GlcN6P” value with glucosamine-6-phosphate [4] is below 1e-05 s⁻¹. The “self-cleavage kobs at 10000 uM GlcN6P” value with glucosamine-6-phosphate [3] was 3.14e-05 ± 1.3e-05 s⁻¹.
For A14C G40C A53C U55G G66C, the “self-cleavage kobs at 40 uM GlcN6P” value with glucosamine-6-phosphate [1] is below 1e-05 s⁻¹.
For C11U A33C A53U U57G G60U, in the data set with glucosamine-6-phosphate [1], the “self-cleavage kobs at 40 uM GlcN6P” value was below 1e-05 s⁻¹. Further, the “self-cleavage kobs at 10000 uM GlcN6P” value with glucosamine-6-phosphate [3] is below 1e-05 s⁻¹.
A12C U31G: the “self-cleavage kobs at 40 uM GlcN6P” value with glucosamine-6-phosphate [1] turned out to be 8.48e-05 ± 1.8e-05 s⁻¹.
Still for that read-out and setting: the value for A14G C71G was 0.00028 ± 3.6e-05 s⁻¹.
Regarding C16U U45G A52U C67A C68G C71A, the “self-cleavage kobs at 40 uM GlcN6P” value with glucosamine-6-phosphate [1] was below 1e-05 s⁻¹. Besides, the “self-cleavage kobs at 640 uM GlcN6P” value with glucosamine-6-phosphate [5] is below 1e-05 s⁻¹. Moreover, the “self-cleavage kobs at 160 uM GlcN6P” value with glucosamine-6-phosphate [4] was below 1e-05 s⁻¹. Besides, in the data set with glucosamine-6-phosphate [2], the “self-cleavage kobs at 2500 uM GlcN6P” value was below 1e-05 s⁻¹.
In the case of A15U G43U U65A, in the data set with glucosamine-6-phosphate [1], the “self-cleavage kobs at 40 uM GlcN6P” value was below 1e-05 s⁻¹.
Take C16U G38U G41A G62U: the “self-cleavage kobs at 40 uM GlcN6P” value with glucosamine-6-phosphate [1] was below 1e-05 s⁻¹.
As for A12U A36U C50U U65G, in the data set with glucosamine-6-phosphate [1], the “self-cleavage kobs at 40 uM GlcN6P” value is below 1e-05 s⁻¹. Also, in the data set with glucosamine-6-phosphate [3], the “self-cleavage kobs at 10000 uM GlcN6P” value is below 1e-05 s⁻¹.
On to A14C A52U, for which, in the data set with glucosamine-6-phosphate [1], the “self-cleavage kobs at 40 uM GlcN6P” value was below 1e-05 s⁻¹. Moreover, the “self-cleavage kobs at 160 uM GlcN6P” value with glucosamine-6-phosphate [4] was below 1e-05 s⁻¹.
Turning to A14G A36G U47G G62U U65A, in the data set with glucosamine-6-phosphate [1], the “self-cleavage kobs at 40 uM GlcN6P” value is below 1e-05 s⁻¹. Besides, the “self-cleavage kobs at 10000 uM GlcN6P” value with glucosamine-6-phosphate [3] was below 1e-05 s⁻¹.
In the case of G13C G44A, the “self-cleavage kobs at 40 uM GlcN6P” value with glucosamine-6-phosphate [1] is below 1e-05 s⁻¹. Also, in the data set with glucosamine-6-phosphate [5], the “self-cleavage kobs at 640 uM GlcN6P” value is below 1e-05 s⁻¹. Besides, the “self-cleavage kobs at 160 uM GlcN6P” value in the data set with glucosamine-6-phosphate [4] is below 1e-05 s⁻¹. Moreover, the “self-cleavage kobs at 10000 uM GlcN6P” value with glucosamine-6-phosphate [3] is below 1e-05 s⁻¹.

The values are drawn from the supplement of paper PMC7125110.
